Laboratory results published in PubChem BioAssay AID1347043 (National Center for Advancing Translational Sciences (NCATS), 2019).
In all, about 76,000 compounds went through this assay and about 1,900 (2.5%) were called active. Inconclusive results, whose numbers are uncertain, are shown with a selection of clear calls. Calls come from the whole dose curve; as a rule, active = well fitted inhibition curve with a large enough effect; inconclusive = small, poorly fitted or top-dose-only effect; inactive = flat fitted curve, though single readings scatter. Potencies of inconclusive entries are doubtful fits and often do not repeat.
% is set by controls: 0 for no effect and ±100 for the full control effect; potency is the fitted concentration of half-maximal effect; tags give direction and shape of the fitted curve.
Note: nearly all actives have a fitted effect of over 65% in size.

What follows are molecules tested against Luciferin 4-monooxygenase (Photinus pyralis) (UniProt P08659) (assay: Firefly luciferase inhibition profiling of diverse chemical library using quantitative high-throughput screening). Settings: purified P. pyralis luciferase, luminescence, biochemical; activity change, negative = inhibition: at 115 µM (top of the series) unless noted.
Chain of UniProt P08659 (P08659 whole entry, looked up): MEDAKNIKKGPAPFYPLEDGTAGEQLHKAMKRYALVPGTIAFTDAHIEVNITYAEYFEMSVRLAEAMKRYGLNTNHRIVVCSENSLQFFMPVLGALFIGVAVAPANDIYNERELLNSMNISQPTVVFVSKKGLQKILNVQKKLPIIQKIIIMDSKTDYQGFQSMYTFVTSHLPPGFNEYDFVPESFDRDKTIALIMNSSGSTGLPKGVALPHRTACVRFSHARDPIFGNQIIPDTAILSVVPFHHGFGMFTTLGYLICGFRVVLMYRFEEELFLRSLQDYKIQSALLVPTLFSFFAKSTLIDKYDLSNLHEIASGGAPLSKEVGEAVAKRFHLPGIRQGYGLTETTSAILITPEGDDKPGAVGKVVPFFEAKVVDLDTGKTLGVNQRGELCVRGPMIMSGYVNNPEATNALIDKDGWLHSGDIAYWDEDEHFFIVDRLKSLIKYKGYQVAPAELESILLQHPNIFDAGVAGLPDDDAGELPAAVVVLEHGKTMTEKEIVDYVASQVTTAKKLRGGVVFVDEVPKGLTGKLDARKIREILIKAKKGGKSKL
In short: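 Biochemical qHTS: compound (6-point titration) added to 10uM D-luciferin plus 10uM ATP in Tris acetate pH 7.5 buffer with Mg, Tween-20 and BSA, then purified enzyme at 10nM; light output imaged.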
In the case of CCCNc1cc(N2CCC(CCC(=O)Nc3ccc(C)cc3)CC2)ncn1, the Potency is reported as active: 28.2 µM.
For COc1ccc(-c2noc([C@@H]3C[C@@H](O)CN3Cc3ncc[nH]3)n2)cc1, the Potency was inconclusive: 3.16 µM [inhibitor, full curve].
For Fc1cccc(-c2cnc(Nc3cnccn3)c3c2CCO3)c1, the Potency was inconclusive: 50.1 µM [inhibitor, partial curve].
For COc1ccc(CNC(=O)N2CCCC(Cc3noc(-c4ccccn4)n3)C2)cc1 (stereo not drawn), the “activity change, negative = inhibition” value was inactive: -17.7%.
In the case of COc1ccc(CN2C(=O)[C@@H]3C[C@@H](O)CN3C3(CN(Cc4cnc[nH]4)C3)C2=O)cc1, the “activity change, negative = inhibition” value is reported as inactive: -2.45% [at 172 µM].
For Cn1ccnc1CN1CC2(CCN(C(=O)C3CC3)CC2)CC1C(=O)O (stereo not drawn), the “activity change, negative = inhibition” value was inactive: 15%.
In the case of O=C1CCC2(C(=O)NCCN3CCOCC3)CCCC=C2N1C1CCCC1 (stereo not drawn), the Potency is reported as inconclusive: 56.2 µM [inhibitor, partial curve].
With COc1cccc(CNC(=O)c2c[nH]c3ncccc23)c1 the Potency was active: 39.8 µM.
Cc1ccc(-c2cc3c(=O)n(CCNC(=O)c4cccc(N(C)C)c4)ccn3n2)cc1C was tested, and the Potency was inconclusive: 5.01 µM [inhibitor, full curve].
COc1cc2c(cc1OC)C(C[C@H]1CN(C(=O)c3cccnc3)CC[C@H]1CC(=O)O)=NCC2 was tested, and the “activity change, negative = inhibition” value was inactive: -13.8%.
In the case of COc1ccc(-c2noc(Nc3ccccc3)n2)cc1, the Potency is reported as active: 1.12 µM.
For CCCNC(=O)c1cccc2c1CCN2C(=O)Nc1ccc(OC)cc1, the Potency was active: 0.355 µM.
For COc1ccc(-c2cc(N3CCCN(C(=O)c4cccc5[nH]ccc45)CC3)n[nH]2)cc1, the Potency was inconclusive: 56.2 µM [inhibitor, partial curve, poor fit].
O=C(c1cnn2ccccc12)N1CCC(Cc2cccc(CO)c2)C1 (stereo not drawn) was tested, and the Potency was inconclusive: 1.58 µM [inhibitor, full curve].
With Cc1ccc(OCCC2CCN(C(=O)Nc3cccc(C)c3)C2)cc1 (stereo not drawn) the Potency was inconclusive: 35.5 µM [inhibitor, partial curve].
In the case of Clc1ccc(-c2nnc([C@H]3CCN(Cc4ccccc4)C3)o2)cc1, the Potency is reported as inconclusive: 79.4 µM [inhibitor, partial curve].
In the case of O=C(NCc1ccnc2[nH]ccc12)c1cccc2[nH]ccc12, the Potency is reported as inconclusive: 89.1 µM [inhibitor, partial curve].
For CCn1cc(S(=O)(=O)N2CCCC(Cc3ncc(C)n3Cc3ccccc3)C2)cn1 (stereo not drawn), the “activity change, negative = inhibition” value was inactive: 4.05%.
For COCCNC(=O)[C@H]1C[C@H](Oc2ccccc2)CN1C(=O)c1ccc(F)cc1, the “activity change, negative = inhibition” value was inactive: 0%.
COc1ccc(-c2ccc3nc(-c4cccc(Cl)c4)oc3c2)c(OC)c1OC was tested, and the Potency was inconclusive: 50.1 µM [inhibitor, partial curve].
Cc1ccc(-c2nnc([C@H]3CCN(Cc4cccc(C#N)c4)C3)o2)cc1 was tested, and the Potency was inconclusive: 112 µM [inhibitor, partial curve, poor fit].
In the case of O=C(Cc1ccc(-n2cnnn2)cc1)N1CCC2(CC1)[C@H](O)C[C@@H]2O, the “activity change, negative = inhibition” value is reported as inactive: 1.15%.
In the case of O=C(CN1C(=O)NC(c2ccc(Cl)cc2)C2=C1COC2=O)Nc1ccc2c(c1)OCCO2 (stereo not drawn), the Potency is reported as inconclusive: 44.7 µM [inhibitor, partial curve].
In the case of Cn1c(=O)c2ccnn2c2ccc(C(=O)Nc3ccc4c(c3)OCCO4)cc21, the Potency is reported as active: 10 µM.
COCCN1CCNc2cc(-c3ccc(Oc4ccccc4)cc3)ncc2C1 was tested, and the Potency was active: 28.2 µM.
CSCC(=O)N[C@H]1CCN2C(=O)c3cc(-c4cccs4)ccc3NC(=O)[C@H]12 was tested, and the Potency was inconclusive: 10 µM [inhibitor, partial curve, poor fit].
CNc1cccnc1OC1CCN(S(=O)(=O)Cc2ccccc2)C1 (stereo not drawn) was tested, and the “activity change, negative = inhibition” value was inactive: 3.97%.
With Cn1nc(C(=O)N2CCCN(c3cc(-c4ccc(Cl)cc4)[nH]n3)CC2)c2ccccc21 the “activity change, negative = inhibition” value was inactive: -1.51%.
In the case of Cc1cc(C)n(-c2cccc(CN(C)C(=O)C3CCC(=O)N(C4CCCC4)C3)c2)n1 (stereo not drawn), the “activity change, negative = inhibition” value is reported as inactive: -0.434%.
With CCC1(N2CCN(C(=O)c3cc(Cl)ccc3OC)CC2)CCN(C(=O)NC)C1 (stereo not drawn) the Potency was inconclusive: 44.7 µM [inhibitor, partial curve].
For C[S+](=O)([O-])CCn1ncc2cc(OCc3cccc(-c4cccc(O)c4)c3)ccc21, the Potency was active: 3.98 µM.
With COc1cccc(Cn2c(=O)c3ccnn3c3ccc(C(=O)NCCCN(C)C)cc32)c1 the “activity change, negative = inhibition” value was inactive: 5.59%.
With CC(C)N1C(=O)C2(CCCC2)C1C(=O)Nc1ccccc1 (stereo not drawn) the “activity change, negative = inhibition” value was inactive: -10.3%.
For Cc1ccc(-c2noc([C@@H]3Cc4nc[nH]c4CN3C(=O)Nc3ccccc3)n2)cc1, the Potency was inconclusive: 79.4 µM [inhibitor, partial curve, poor fit].
For O[C@@H]1C[C@@H](c2nc(-c3ccccn3)no2)N(Cc2cccc(OC(F)(F)F)c2)C1, the Potency was inconclusive: 63.1 µM [inhibitor, partial curve].
With O=C(c1nnc(COc2ccc(F)c(F)c2)n1-c1ccccc1)N1CCC[C@@H]1C(c1ccccc1)c1ccccc1 the “activity change, negative = inhibition” value was inactive: -16.5%.
In the case of COc1ccc(-c2cc(N3CCCC(NC(=O)c4ccc(OC)cc4OC)C3)n[nH]2)cc1 (stereo not drawn), the Potency is reported as active: 12.6 µM.
In the case of CCn1ccc(C(=O)NC2CCCN(c3cc(-c4ccc(F)cc4)[nH]n3)C2)n1 (stereo not drawn), the Potency is reported as inconclusive: 39.8 µM [inhibitor, partial curve].
COCCOc1ccc2c(n1)CCN(C(=O)Nc1ccc(C)c(C)c1)C2 was tested, and the Potency was inconclusive: 35.5 µM [inhibitor, partial curve].
Cc1ccc(C2=NC3(CCN(C(=O)c4ccoc4)CC3)ON2)cc1 was tested, and the Potency was active: 31.6 µM.
For Cn1ccc2c(C(=O)NCCc3cnc[nH]3)nc(-c3ccccc3)cc21, the Potency was inconclusive: 126 µM [inhibitor, single point].
In the case of CC(C)C[C@@H]1N[C@H](C(=O)NC2CCCC2)Cc2c[nH]c3cccc1c23, the “activity change, negative = inhibition” value is reported as inactive: 9.56% [at 172 µM].
In the case of CCc1nc2c(NC(=O)NCc3ccc(OC)cc3)cccn2n1, the Potency is reported as inconclusive: 50.1 µM [inhibitor, partial curve, poor fit].
CN(C)c1cccc(-c2cc(-c3cn[nH]c3)c3cncn3c2)c1 was tested, and the Potency was inconclusive: 79.4 µM [inhibitor, partial curve, poor fit].
O=C1N[C@@H]2CCN(C(=O)c3ccc(-c4ccccc4)cc3)[C@@H]2C(=O)N1c1ccc(F)cc1 was tested, and the Potency was inconclusive: 126 µM [inhibitor, single point].
CN1CCCCCCN(C(=O)Nc2ccc3c(c2)OCCO3)CCC1=O was tested, and the Potency was active: 4.47 µM.
CC1=NS(=O)(=O)N(Cc2ccccc2)C=C1C(=O)OCc1nc(-c2cccs2)no1 was tested, and the “activity change, negative = inhibition” value was inactive: 4.73%.
In the case of COc1ccc(-c2noc([C@@H]3CCCN3C(=O)C3(c4ccc(OC)cc4)CC3)n2)cc1, the Potency is reported as inconclusive: 44.7 µM [inhibitor, partial curve].
For FC(F)(F)c1ccc2nc([C@H]3CCN(Cc4ccccn4)C3)[nH]c2c1, the Potency was inconclusive: 50.1 µM [inhibitor, partial curve].
In the case of Cc1ccc(-c2cc(O)c3c(c2)CNCCO3)cc1, the Potency is reported as inconclusive: 44.7 µM [inhibitor, partial curve].
With O=C(Nc1cccc(-c2ccc(N3CCCC3)nn2)c1)c1c(F)cccc1F the Potency was active: 7.08 µM.
CCc1ccc(NC(=O)c2ccc3c(c2)N(C)C2CCCCN2C3=O)cc1 (stereo not drawn) was tested, and the Potency was active: 14.1 µM.
With c1ccc(-c2noc(-c3nc(-c4ccccn4)no3)n2)cc1 the “activity change, negative = inhibition” value was inactive: -36.8%.
With Cc1ccc(C)c(NC(=O)C2CCN(C(=O)c3ncn4c3COC(c3ccc(F)cc3)C4)CC2)c1 (stereo not drawn) the Potency was active: 28.2 µM.
COc1ccc(NC(=O)N[C@H]2CO[C@H]3[C@@H]2OC[C@@H]3n2nnnc2-c2ccccc2)cc1 was tested, and the Potency was inconclusive: 35.5 µM [inhibitor, partial curve, poor fit].
With O=C(CCc1ccccc1)N1CCCC(n2cc(-c3nc(-c4ccccc4)no3)nn2)C1 (stereo not drawn) the Potency was inconclusive: 63.1 µM [inhibitor, partial curve, poor fit].
Cc1cc(NC(=O)N2CCCC(Cn3cnc4cccnc43)C2)ccc1Br (stereo not drawn) was tested, and the “activity change, negative = inhibition” value was inactive: -3.72%.
For Cc1cc(-c2cc3[nH]ccc3c(C(=O)NCc3c(C)cc(C)[nH]c3=O)n2)ccn1, the Potency was inconclusive: 112 µM [inhibitor, single point].
With O=C(Nc1ccc([C@@H](O)[C@H]2COCC(=O)N2CC2CC2)cc1)c1ccc(F)cc1 the Potency was inconclusive: 89.1 µM [inhibitor, partial curve, poor fit].
In the case of CC(=O)Nc1ccc(CNC[C@H]2Cn3c(-c4ccc(F)cc4)cnc3CO2)cc1, the “activity change, negative = inhibition” value is reported as inactive: 6.06% [at 172 µM].
For CCOC(=O)N1CCC(NC(=O)c2ccc(OC3CCN(C(=O)C4CC4)CC3)cc2)CC1, the Potency was inconclusive: 39.8 µM [inhibitor, partial curve].
For Cc1ccc(-c2nc(CC(=O)Nc3ccc4c(c3)C(=O)N3CCC[C@H]3C(=O)N4)cs2)cc1, the Potency was inconclusive: 79.4 µM [inhibitor, partial curve, poor fit].
For C=CCn1cc2c3c(cccc31)[C@H](CC(C)C)N[C@H](C(=O)N1CCOCC1)C2, the Potency was inconclusive: 50.1 µM [inhibitor, partial curve].
COCCOC1CCN(C(=O)Nc2ccccc2F)CC1 was tested, and the Potency was inconclusive: 44.7 µM [inhibitor, partial curve].
For Cc1ccc(-c2noc([C@@H]3Cc4nc[nH]c4CN3Cc3cccs3)n2)cc1, the Potency was active: 28.2 µM.
CC(C)Oc1ccc(CNC(=O)C2(Cc3cccnc3)CCCCC(=O)N2)cc1 (stereo not drawn) was tested, and the Potency was inconclusive: 50.1 µM [inhibitor, partial curve, poor fit].
O=C(c1cccc(Cl)c1)N1CCc2nc(-c3ccc(Cl)cc3)nc(-c3ccccc3)c2C1 was tested, and the Potency was inconclusive: 44.7 µM [inhibitor, partial curve].
For COc1cccc(CN2CCC3(COc4ccccc4C(=O)N3)C2)c1 (stereo not drawn), the “activity change, negative = inhibition” value was inactive: 2.06% [at 172 µM].
